In paper PMC4336329 (PLoS ONE, 2015):
Screen size: about 310,000 compounds; about 2,200 (0.71%) showed an effect of 50% or more. The effect is printed as a negative number. The list shows a part of the results.

biological target: human ether-à-go-go-related gene (hERG) potassium channel (human, UniProt Q12809); assay: primary screen, population patch clamp on CHO cells stably expressing hERG
Sequence (Q12809 whole entry, looked up): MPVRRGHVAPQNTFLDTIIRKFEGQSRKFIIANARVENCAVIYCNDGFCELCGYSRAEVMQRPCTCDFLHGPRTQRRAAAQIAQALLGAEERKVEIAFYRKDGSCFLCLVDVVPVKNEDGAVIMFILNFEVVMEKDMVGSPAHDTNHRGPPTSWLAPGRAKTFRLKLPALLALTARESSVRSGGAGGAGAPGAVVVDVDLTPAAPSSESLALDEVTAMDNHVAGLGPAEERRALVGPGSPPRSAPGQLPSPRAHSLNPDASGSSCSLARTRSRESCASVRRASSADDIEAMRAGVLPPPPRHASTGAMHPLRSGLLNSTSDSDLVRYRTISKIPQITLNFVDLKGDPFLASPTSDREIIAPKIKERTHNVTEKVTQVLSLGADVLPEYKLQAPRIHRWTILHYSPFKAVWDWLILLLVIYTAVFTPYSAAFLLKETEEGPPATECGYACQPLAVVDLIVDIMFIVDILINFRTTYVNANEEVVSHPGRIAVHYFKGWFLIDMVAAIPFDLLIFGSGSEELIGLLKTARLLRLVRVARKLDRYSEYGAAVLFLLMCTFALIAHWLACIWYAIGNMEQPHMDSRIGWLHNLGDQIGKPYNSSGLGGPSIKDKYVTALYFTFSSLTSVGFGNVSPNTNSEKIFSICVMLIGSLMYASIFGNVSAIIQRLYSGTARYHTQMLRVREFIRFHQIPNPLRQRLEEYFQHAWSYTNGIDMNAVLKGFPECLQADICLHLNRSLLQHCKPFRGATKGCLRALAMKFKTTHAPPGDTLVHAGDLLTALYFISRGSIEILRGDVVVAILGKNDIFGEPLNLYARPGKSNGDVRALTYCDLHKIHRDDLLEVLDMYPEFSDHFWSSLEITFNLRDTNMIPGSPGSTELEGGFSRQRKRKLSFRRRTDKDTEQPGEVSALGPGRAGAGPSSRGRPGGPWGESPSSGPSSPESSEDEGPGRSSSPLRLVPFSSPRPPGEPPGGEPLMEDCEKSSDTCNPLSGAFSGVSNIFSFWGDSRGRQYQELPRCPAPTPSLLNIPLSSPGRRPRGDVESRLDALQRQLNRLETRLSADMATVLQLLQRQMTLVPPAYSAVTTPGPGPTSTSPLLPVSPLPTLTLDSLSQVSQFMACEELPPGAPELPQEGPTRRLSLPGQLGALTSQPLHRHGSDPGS

Row | Structure (SMILES) | hERG current change (%, negative = inhibition) at 1uM [%]
1 | CCOC(=O)c1ccccc1NC(=O)COC(=O)CSCC(=O)Nc1cc(C)on1 | 5.88
2 | COc1ccc(-c2noc(CSc3nnc(Cc4ccccc4)n3-c3ccc(Cl)cc3)n2)cc1 | 16.1
3 | NC(=O)CC(NC(=O)c1cccc(Br)c1)c1ccc(NC2CCC2)c([N+](=O)[O-])c1 (stereo not shown) | -2.76
4 | C=CCC(=O)OCC(=O)Nc1ccc(Cl)cn1 | 0.45
5 | CCC(=O)N1CCN(c2ccc(NC(=O)c3ccc(N4CCOCC4)c([N+](=O)[O-])c3)cc2)CC1 | 9.74
6 | O=C(Nc1ccncc1)Nc1cc(Cl)ccc1Cl | 15
7 | COc1cccc(/C=C2\N=C(C3CCCCC3)OC2=O)c1OC | -2.27
8 | Cc1ccccc1C(=O)Nc1ccc2c(c1)C(=O)NC2=O | 12.8
9 | Cc1ccc(S(=O)(=O)N(C(=O)c2ccncc2)c2ccc(OC(=O)c3ccncc3)c3ccccc23)cc1 | 2.31
10 | CCCC1=Nc2cc(C(=O)NCCCOC(C)C)ccc2Sc2ccccc21 | -1.28
11 | CSc1nc(-c2ccccc2F)c(C#N)c(=O)n1C | 7.78
12 | COc1ccc(NC2CCCN(C(=O)CCCn3cncn3)C2)cc1 (stereo not shown) | 13.3
13 | COc1ccc(C)cc1NC(=O)C(Sc1nncn1C)c1ccccc1 (stereo not shown) | -0.178
14 | COc1cc2ccccc2cc1C(=O)N1CCCC1 | 9.35
15 | O=C(N/N=C/C1CC2C=CC1C2)c1ccccc1O (stereo not shown) | 9.6
16 | CC(=O)N1CCN(C(=O)c2cc(-c3ccc(C)o3)nc3ccccc23)CC1 | 2.37
17 | Cn1c(CSc2ncccn2)nnc1SCC(=O)N1CCCC1 | 17.6
18 | Cn1c2ccccc2c2nnc(SCC(=O)Nc3ccccc3F)nc21 | 6.28
19 | Cc1sc2ncn(CC(=O)OCC(=O)NC(C)(C)C)c(=O)c2c1C | 17
20 | O=C(CN(C(=O)CCC(=O)Nc1nccs1)c1ccccc1F)NCC1CCCO1 (stereo not shown) | 6.33

Row | Structure (SMILES) | hERG current change (%, negative = inhibition) at 1uM [%]
21 | Cc1cc(OCC(=O)NCCc2ccc(S(N)(=O)=O)cc2)c2c(C)cc(=O)oc2c1 | 12
22 | COc1ccccc1NC1(C#N)CCCCC1 | 10.2
23 | O=C(CCNC(=O)c1ccccc1Cl)NCCc1ccc(Cl)cc1 | 5.86
24 | O=C(N/N=C/c1ccc2c(c1)OCO2)c1ccc(NC(=O)c2ccc(F)cc2)cc1 | 10.9
25 | O=C(NC1CCCC1)C(c1ccsc1)N(Cc1ccco1)C(=O)Cc1cccs1 (stereo not shown) | 1.01
26 | O=S(=O)(/N=C(/c1ccccc1)N1CCOCC1)c1ccc(F)cc1 | 7.22
27 | Cc1oc(/N=C/c2ccc(Cl)cc2)c(C#N)c1C | 8.04
28 | CCN(CC)S(=O)(=O)c1ccc(NC(=O)c2ccc(CN3CCOCC3)cc2)cc1 | 8.92
29 | CC(=O)n1cc(C2C(=O)CC(C)(C)CC2=O)c2ccccc21 | 4.97
30 | CCOC(=O)c1c(C)[nH]c2c1cc(O)c1ccccc12 | 10.4
31 | N#CCCN1CCN(S(=O)(=O)c2ccc3c(c2)OCCCO3)CC1.O=C(O)C(=O)O | 20
32 | Cc1ccc(CSc2nnc(Nc3ccc(C)cc3)s2)cc1 | 17.6
33 | COc1ccc(OC)c(NC2c3ccccc3C(=O)N2c2cccnc2)c1 (stereo not shown) | 5.31
34 | O=S(=O)(NC1CC(NS(=O)(=O)OCC(Cl)(Cl)Cl)C2CCCCC12)OCC(Cl)(Cl)Cl (stereo not shown) | 4.56
35 | CCC(C)NC(=O)CNC(=S)N(Cc1ccccc1F)C1CCCCC1 (stereo not shown) | 11.1
36 | Cn1cccc1Cc1nnc(SCC(=O)N2CCc3ccccc32)n1CCc1ccccc1 | 7.66
37 | CC(=O)C1=C(C)NC(SCC(=O)c2ccc(Cl)cc2)=C(C#N)C1c1ccco1 (stereo not shown) | 15.1
38 | Cn1nnnc1SCc1csc(Nc2ccccc2)n1 | 1.48
39 | Cc1cccc(OCC(=O)NCCNC(=O)c2ccco2)c1 | -1.5
40 | Cc1nn(C(=O)c2nn(C)cc2Cl)c(C)c1Br | 2.59

Row | Structure (SMILES) | hERG current change (%, negative = inhibition) at 1uM [%]
41 | COc1ccc(Br)cc1CN1CCN(C(=O)c2cccc(OC)c2OC)CC1.O=C(O)C(=O)O | 4.85
42 | O=C(NCC(=O)N(Cc1ccc(F)cc1)C(C(=O)NC1CCCC1)c1ccco1)c1ccco1 (stereo not shown) | -5.26
43 | COc1cccc(CNC(=O)C2CCN(S(=O)(=O)c3ccc(Br)s3)CC2)c1 | -10.1
44 | O=C(/C=C/c1cccc(F)c1)OCC(=O)N1CCCc2ccccc21 | 8.28
45 | Cc1nnc(SCC(=O)NNC(=O)c2ccco2)s1 | -1.69
46 | Cc1ccc(C(=O)NCC(=O)NCC(=O)OCC(=O)c2ccc(Br)cc2)cc1 | 10.5
47 | CCn1c(CNC(=O)c2cccc(C)c2)nnc1SCC(=O)Nc1cccc(OC)c1 | -4.04
48 | CC(C#CCN1CCCCC1)OCCOCc1ccccc1.Cl (stereo not shown) | 7.95
49 | COC(=O)c1c(C(=O)OC)c2n(c1C)Cc1ccccc1C2 | -5.49
50 | NS(=O)(=O)c1cccc(C(=O)NC2CCSc3ccccc32)c1 (stereo not shown) | 6.64
51 | C/C(=N\NC(=S)NC(C)C)c1ccc2c(c1)OCCO2 | 11.4
52 | O=C(N1CCCCCC1)N1CCN(S(=O)(=O)N2CCCCC2)CC1 | -1.87
53 | COc1ccc(-n2cnnc2SCC(=O)NCc2cccs2)cc1 | 14.6
54 | Cc1ccsc1C(=O)NCC(=O)OCc1ccccc1 | 4.3
55 | Cn1cc(CN2CCN(CCc3ccccc3)C(CCO)C2)cn1 (stereo not shown) | 7.67
56 | CSc1cccc(NC(=O)C(C)C)c1 | 11.9
57 | Cl.OC(c1cc(C(F)(F)F)nc2c(C(F)(F)F)cccc12)C1CCCCN1 (stereo not shown) | 14
58 | O=C(NC1CCN(Cc2ccccc2)CC1)c1cn(-c2ccccc2)nc1-c1cccnc1 | -15.7
